{"source": "PubChem BioAssay AID1347073", "about": "(National Center for Advancing Translational Sciences (NCATS), 2019)", "note": "About 200 (0.44%) of roughly 45,000 compounds were called active. Not shown: some 7% with an inconclusive outcome. The call rests on the fitted dose curve; in most records, active means well fitted activation curve with a large enough effect; inconclusive means small, poorly fitted or top-dose-only effect; inactive means no such curve, though single readings can be large or run the other way. This is one part of the list.", "data": [{"assay": "qHTS of TDP-43 Inhibitors: NCGC Sytravon Library Screen; further: 0% is about no effect; nearly all actives have a fitted effect of over 55% in size", "conditions": "yeast TDP-43 toxicity rescue, BacTiter-Glo growth, 24 h; series mostly up to 46.1 µM; growth rescue (activation): at the top concentration", "excerpt": "The goal of this project is to identify new chemical probes capable of reversing the toxicity associated with TDP-43 which is associated with frontotemporal lobar degeneration and amyotrophic lateral sclerosis. These compounds will provide a complementary approach to deciphering the tangled mechanisms of toxicity and protection that we have uncovered through genome-wide genetic screens and are beginning to uncover in a large-scale proteomics analysis with mass spectroscopy. To this end, a miniaturized assay was developed to be screened against the Molecular Libraries Small Molecule Repository (MLSMR) to discover TDP-43 inhibitors. Please note that in the set-up this yeast-based assay compounds that inhibit as TDP-43, have a read-out as activators. NIH Chemical Genomics Center [NCGC] NIH Molecular Libraries Probe Centers Network [MLPCN] Assay Submitter (PI): Susan Lindquist, Whitehead Institute/MIT MLPCN Grant: R21 NS060957\nDispense 2.5 microL yeast galactose medium per 1536-well plate, pin compound, dispense 2.5 microL TDP-43 expressing yeast in galactose medium at OD600=0.02 (pregrown in raffinose medium to mid-log phase) per well, incubate for 24 hr at 30 deg C, and cell growth will be measured using 5 microL of Bactiter/Glo reagent to entire plate and read using Luminescence Protocol in ViewLux.", "values": [{"smiles": "CCNC(=O)c1sc(=S)n(CC)c1N", "growth rescue (activation)": "inactive: 3.55%"}, {"smiles": "CC1CCCC(NC(=O)CN2C(=O)NC(c3ccccc3)(c3ccccc3)C2=O)C1C", "note": "(stereo not drawn)", "growth rescue (activation)": "inactive: 19.5%"}, {"smiles": "COc1cccc(NC(=O)c2cc([N+](=O)[O-])ccc2N2CCN(C)CC2)c1", "growth rescue (activation)": "inactive: 8.67%"}, {"smiles": "CC(C)OCc1ccc(C(=O)N2CCN(CC(=O)N3CCCC3)CC2)cc1", "growth rescue (activation)": "inactive: 29.5%"}, {"smiles": "COc1cc(NC(=O)C(=O)NCCN(C)C)c(OC)cc1Cl", "growth rescue (activation)": "inactive: -25.6%"}, {"smiles": "CCN(CC(=O)NCc1cccs1)C(=O)Cc1ccc(Cl)c(Cl)c1", "growth rescue (activation)": "inactive: -9.12%"}, {"smiles": "COc1cccc(C(=O)Nc2cccnc2)c1OC", "growth rescue (activation)": "inactive: 12.6%"}, {"smiles": "Cn1c(/C(C#N)=C(\\O)c2ccc([N+](=O)[O-])cc2)nc2ccccc21", "growth rescue (activation)": "inactive: -4.11%"}, {"smiles": "O=C(Nc1ccc(Cl)cc1)Nc1cccc(C(=O)O)c1", "growth rescue (activation)": "inactive: 3.41%"}, {"smiles": "CC(=O)NS(=O)(=O)c1ccc(NS(=O)(=O)c2ccc3ccccc3c2)cc1", "growth rescue (activation)": "inactive: 1.72%"}, {"smiles": "Cc1ccc(S(=O)(=O)N2CCN(C(=O)CSc3ccc(Cl)cc3)CC2)cc1", "growth rescue (activation)": "inactive: 6.51%"}, {"smiles": "O=C(NCc1ccc(N2CCCC2=O)cc1)C1CCC(=O)N(Cc2ccccc2F)C1", "note": "(stereo not drawn)", "growth rescue (activation)": "inactive: -1.9%"}, {"smiles": "CCC(C)(C)NC(=O)C(c1cccc(OC)c1)N(C(=O)CNC(=O)c1cccs1)c1cccnc1", "note": "(stereo not drawn)", "growth rescue (activation)": "inactive: -0.541%"}, {"smiles": "CCCN(CC1CC1)C(=S)NC(=O)c1ccc(S(=O)(=O)N2CCOCC2)cc1", "growth rescue (activation)": "inactive: 21.7%"}, {"smiles": "O=C1Nc2ccc(S(=O)(=O)NCc3ccccn3)c3cccc1c23", "growth rescue (activation)": "inactive: -25.8%"}, {"smiles": "CN(C)S(=O)(=O)c1ccc(Cl)c(C(=O)NCC2CCCCC2)c1", "growth rescue (activation)": "inactive: 12.5%"}, {"smiles": "CN(C)C(CNc1ccc(C(N)=O)cc1[N+](=O)[O-])c1ccccc1", "note": "(stereo not drawn)", "growth rescue (activation)": "inactive: 6.07%"}, {"smiles": "CCCn1c(-c2cccs2)nc2c1c(=O)[nH]c(=O)n2Cc1ccccc1", "growth rescue (activation)": "inactive: 7.89%"}, {"smiles": "Cc1cc(C(=O)Cn2nc(C(=O)O)c3ccccc3c2=O)c(C)n1CCc1ccc(F)cc1", "growth rescue (activation)": "inactive: 19.9%"}, {"smiles": "Cn1c(COc2cccc3cccnc23)nnc1SCC(=O)O", "growth rescue (activation)": "inactive: 4.59%"}, {"smiles": "CCOc1ccc(Cc2nc(-c3nonc3N)no2)cc1OCC", "growth rescue (activation)": "inactive: 28.1%"}, {"smiles": "Cc1ccc(S(=O)(=O)Nc2nc(C)cc(NN)n2)cc1", "growth rescue (activation)": "inactive: 9.31%"}, {"smiles": "COC(=O)C(Cc1ccc(O)cc1)NC(=O)CCc1ccco1", "note": "(stereo not drawn)", "growth rescue (activation)": "inactive: -18.3%"}, {"smiles": "COc1cc(NC(=O)CNC(=O)Cn2c(C)cc3ccccc3c2=O)cc(OC)c1OC", "growth rescue (activation)": "inactive: 9.26%"}, {"smiles": "COc1ccccc1P(=O)(Cc1ccccc1[N+](=O)[O-])c1ccccc1", "note": "(stereo not drawn)", "growth rescue (activation)": "inactive: -5.11%"}, {"smiles": "CCC(C)NS(=O)(=O)c1ccc(S(=O)(=O)N2CC=C(c3ccc(F)cc3)CC2)cc1", "note": "(stereo not drawn)", "growth rescue (activation)": "inactive: 5.1%"}, {"smiles": "CCN(C(=O)CSc1nnc(-c2cccs2)n1CC)C1CCS(=O)(=O)C1", "note": "(stereo not drawn)", "growth rescue (activation)": "inactive: 12.6%"}, {"smiles": "O=C(Nc1cccc(Cl)c1)c1ccc(F)c(S(=O)(=O)NCc2ccc3c(c2)OCO3)c1", "growth rescue (activation)": "inactive: -1.82%"}, {"smiles": "C[N+]1(CC(=O)OCCCc2ccccc2)CCCC1", "growth rescue (activation)": "inactive: -5.01%"}, {"smiles": "CCC(=O)N1N=C(c2cccs2)CC1c1ccco1", "note": "(stereo not drawn)", "growth rescue (activation)": "inactive: 9.8%"}, {"smiles": "CCCCN(C(=S)Nc1cccc(SC)c1)C1CCN(C(C)=O)CC1", "growth rescue (activation)": "inactive: -0.0565%"}, {"smiles": "O=C(O)c1ccc2c(c1)C(=O)N(c1ccccc1-c1ccccc1)C2=O", "growth rescue (activation)": "inactive: -9.21%"}, {"smiles": "O=C(CN1CCN(c2ccc([N+](=O)[O-])cc2Cl)CC1)N1CCOCC1", "growth rescue (activation)": "inactive: 5.63%"}, {"smiles": "CCN(C(=O)C(C)OC(=O)c1nn(-c2ccccc2C(F)(F)F)cc1O)c1ccccc1", "note": "(stereo not drawn)", "growth rescue (activation)": "inactive: 1.35%"}, {"smiles": "O=C(Nc1ccccc1)c1cc(C2CCCCN2C(=O)c2ccccc2)on1", "note": "(stereo not drawn)", "growth rescue (activation)": "inactive: 21.8%"}, {"smiles": "C=CCN(c1ccccc1)S(=O)(=O)c1cccc(C(=O)NCc2ccco2)c1", "growth rescue (activation)": "inactive: -11.3%"}, {"smiles": "Cc1cc2nc(C(F)(F)F)[nH]c(=O)n2n1", "growth rescue (activation)": "inactive: 4.61%"}, {"smiles": "Cc1cc(C)c(C(N)=O)c(SCC(=O)c2cc(C)c(C)cc2C)n1", "growth rescue (activation)": "inactive: 17.8%"}, {"smiles": "CCOC(=O)/C=C/C(=O)OCC(=O)Nc1ccc(C)cc1", "growth rescue (activation)": "inactive: 0.0725%"}, {"smiles": "CCOC(=O)c1sc2ncn(C(C)C(=O)OCC)c(=O)c2c1C", "note": "(stereo not drawn)", "growth rescue (activation)": "inactive: 18.1%"}, {"smiles": "COc1cc2c(cc1OC)-c1cc(Nc3ccccc3C)nc(=O)n1CC2", "growth rescue (activation)": "inactive: 5.57%"}, {"smiles": "CC1CCCC(C)N1C(=O)COC(=O)c1ccco1", "note": "(stereo not drawn)", "growth rescue (activation)": "inactive: 17.6%"}, {"smiles": "COc1cccc(C(O)c2nc(-c3ccc(N(C)C)cc3)cs2)c1", "note": "(stereo not drawn)", "growth rescue (activation)": "inactive: 29.6%"}, {"smiles": "COc1cccc(C(=O)OCC(=O)NC2CCCc3ccccc32)c1O", "note": "(stereo not drawn)", "growth rescue (activation)": "inactive: 11.7%"}, {"smiles": "Cc1ccc(/C=C(\\C#N)C(=O)NCCN2CCOCC2)cc1", "growth rescue (activation)": "inactive: 0.707%"}, {"smiles": "CCc1nc2ccc(C(=O)NCCCN3CCCC3=O)cn2c1N(CC)CCOC", "growth rescue (activation)": "inactive: 10.3%"}, {"smiles": "COc1cc(/C=C/C(=O)O)cc(S(=O)(=O)NNC(=O)c2cc(C)oc2C)c1OC", "growth rescue (activation)": "inactive: -20.8%"}, {"smiles": "Cc1ccc(CNC(=O)CCC2CCCN(Cc3cccc4c3OCO4)C2)o1", "note": "(stereo not drawn)", "growth rescue (activation)": "inactive: -1.08%"}, {"smiles": "CC(C)n1c(SCC(=O)N2CCN(C(=O)c3ccco3)CC2)nc2c1c(=O)n(C)c(=O)n2C", "growth rescue (activation)": "inactive: 5.17%"}, {"smiles": "CCOCCCNC(=O)c1c(N)n(-c2ccc(S(N)(=O)=O)cc2)c2nc3ccccc3nc12", "growth rescue (activation)": "inactive: 10.4%"}, {"smiles": "COC(=O)c1c(NC(=O)/C=C/c2ccc3c(c2)OCO3)sc(C)c1C", "growth rescue (activation)": "inactive: -5.5%"}, {"smiles": "Cc1ccccc1-c1nc2c3c(-c4ccccc4)c(-c4ccccc4)oc3ncn2n1", "growth rescue (activation)": "inactive: 7.43%"}, {"smiles": "CCc1sc(C(=O)NCCc2ccc(S(N)(=O)=O)cc2)cc1Br", "growth rescue (activation)": "inactive: -16.5%"}]}]}
